PubChem BioAssay AID361 (National Center for Advancing Translational Sciences (NCATS), 2006)
The campaign covered roughly 51,000 compounds. About 600 (1.2%) were called active. This list was built around the results that the source calls inconclusive (neither active nor inactive); the mix of calls is not that of the screen. Cut-off read from the data, not from the text of the source: active = potency below about 11 µM; inconclusive = mostly about 12 µM to 25 µM; inactive = weaker than that;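 the screen sought inhibitors and activators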. Potencies of inconclusive entries are left out as doubtful fits.
Potency is the fitted concentration of half-maximal effect.

The compounds below were run on pyruvate kinase (Bacillus stearothermophilus) (assay: Pyruvate Kinase). Settings: purified pyruvate kinase, luminescence ATP production; ribose 5-phosphate activator present at AC10.
Method in brief: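 Partially purified enzyme (10 nM) converted ADP (0.1 mM) plus PEP (2 mM) to ATP in imidazole pH 7.2 with KCl, MgCl2 and 0.7 nM ribose 5-phosphate, 2 h at room temperature; ATP was read by luciferase luminescence, normalized to activator and inhibitor controls.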
With `COc1cccc(C2CC(c3ccccc3Cl)Nc3nc(N)nn32)c1` (stereo unspecified) the Potency was inconclusive [increasing]. For `Cc1nn(-c2ccccn2)c2c1-c1nc(N)ncc1CC2`, the Potency was inconclusive [decreasing]. For `c1ccc2nc3c(nc2c1)sc1nc2ccccc2n13`, the Potency was inconclusive [increasing]. With `O=C(CC1CCCC1)Nc1nc2ccccc2[nH]1` the Potency was inactive: > 57 µM. `COc1cccc(/C=N/n2c(C)nc3ccccc32)c1OC` was tested, and the Potency was inconclusive [decreasing]. For `CCOc1cccc2cc(-c3cn4cc(C)ccc4n3)c(=O)oc12`, the Potency was active: 1.23 µM. In the case of `Cc1cc(S(=O)(=O)N2CCN(c3c(C)cccc3C)CC2)ccc1F`, the Potency is reported as inconclusive [increasing]. `O=c1oc2cc(O)ccc2c2oc3cc(O)ccc3c12` was tested, and the Potency was inconclusive [decreasing]. With `O=C(CSCCO)Nc1cccc2ccccc12` the Potency was inconclusive [increasing]. For `O=C(Nc1ccc2c(c1)OCCO2)c1ccc2nccnc2c1`, the Potency was inconclusive [decreasing]. In the case of `CCc1ccc2nc(N3CCN(C)CC3)c(C#N)cc2c1`, the Potency is reported as inconclusive [increasing]. `COc1ccc(-c2cc(C(N)=O)nc(N3CCCCCC3)n2)cc1` was tested, and the Potency was inconclusive [decreasing]. For `OCCCN1c2ccccc2Nc2nnc(-c3ccccc3)cc21`, the Potency was active: 6.08 µM. With `CC1(C)Cc2nc(N)c(C(=O)NCCO)cc2CO1` the Potency was inactive: > 25.6 µM. With `COc1cccc(-c2nn(C)c3sc(C(=O)N4CCN(c5ccccn5)CC4)cc23)c1` the Potency was active: 7.26 µM. For `O=C(NCc1ccc(Cl)cc1Cl)c1ccccn1`, the Potency was inconclusive [increasing]. `Cc1ccc(S(=O)(=O)N2C(=O)CCC2C(=O)NCc2ccco2)cc1` (stereo unspecified) was tested, and the Potency was inconclusive [increasing]. With `Cc1csc(NC(=O)c2sc3nc(-c4cccs4)ccc3c2N)n1` the Potency was active: 7.41 µM. In the case of `O=C(CSc1nnc(-c2ccncc2)n1Cc1ccco1)c1ccc(Cl)cc1`, the Potency is reported as inactive: > 57 µM. With `COc1ccc(O)c(-c2cc(-c3cccs3)[nH]n2)c1` the Potency was inconclusive [decreasing]. With `CN(C(=O)COc1nnc(-c2cccs2)c(-c2cccs2)n1)c1ccccc1` the Potency was inconclusive [increasing]. `O=C(C1CCN(S(=O)(=O)c2cccc3cccnc23)CC1)N1CCc2ccccc21` was tested, and the Potency was active: 9.69 µM. For `COCCN1Cc2cccc(C(=O)Nc3ccc(S(=O)(=O)N4CCCCCC4)cc3)c2C1=O`, the Potency was inactive: > 57 µM. For `CCOC(=O)Cc1c(C)c2c(C)nn(-c3ccccc3)c2oc1=O`, the Potency was inactive: > 57 µM. In the case of `Cc1cnc(NC(=O)c2ccc3c(c2)C(=O)N(Cc2ccco2)C3=O)s1`, the Potency is reported as inactive: > 57 µM. For `Cc1ccc(S(=O)(=O)N2CCCC2C(=O)N(C)Cc2cccs2)cc1` (stereo unspecified), the Potency was inconclusive [increasing]. In the case of `NC(=O)COc1c(-c2ccccc2)oc2ccccc2c1=O`, the Potency is reported as inconclusive [decreasing]. In the case of `Cn1c(Cl)nc2ccccc21`, the Potency is reported as inactive: > 57 µM. In the case of `O=S(=O)(Nc1ccc2c(c1)OCCO2)c1cccc2nsnc12`, the Potency is reported as active: 8.56 µM. For `C=CCNc1ncnc2c1[nH]c1ccc(C)cc12`, the Potency was inconclusive [decreasing]. For `O=C(NCc1ccc2c(c1)OCO2)c1cccs1`, the Potency was inactive: > 57 µM. In the case of `Cc1ccc(CN2C(=O)CCC2C(=O)NCc2ccc3c(c2)OCO3)cc1` (stereo unspecified), the Potency is reported as inconclusive [increasing]. `CCOc1cccc(-c2nnc3sc(COc4ccccc4)nn23)c1` was tested, and the Potency was inactive: > 25.6 µM. With `CC(=O)Nc1nonc1NC(=O)CSc1ccccn1` the Potency was inactive: > 57 µM. For `COc1cccc(=O)c2c(C)n(C)c(C)c12`, the Potency was inconclusive [increasing]. For `COC(=O)CSc1ncnc2c1sc1nc(-c3ccco3)c3c(c12)CC(C)(C)OC3`, the Potency was inactive: > 25.6 µM. `Clc1ccc2nc3ccccn3c2c1` was tested, and the Potency was “inactive”. With `Cc1ccc(Nc2nc3nonc3[nH]c2=O)cc1` the Potency was inconclusive [increasing]. For `Oc1ccccc1-c1cc(-c2ccccc2Cl)[nH]n1`, the Potency was inconclusive [decreasing]. With `CC(C)Cn1c(-c2ccc(Cl)cc2)cnc1SCC(=O)N1CCOCC1` the Potency was inactive: > 57 µM. For `Cn1c(/N=C/c2c[nH]c3ccccc23)nc2ccccc21`, the Potency was active: 0.3 µM. In the case of `Cc1cc(C)n(-c2nc3ccccc3nc2N2CCN(C(=O)c3ccc(Cl)cc3)CC2)n1`, the Potency is reported as inconclusive [increasing]. In the case of `O=C1N/C(=C\c2ccccc2)c2ccccc21`, the Potency is reported as active: 5.57 µM. For `O=C(Nc1ccc(F)cc1)c1cccc2c1C(=O)N(Cc1ccccn1)C2`, the Potency was active: 10.7 µM. `CCn1nnc(NC(=O)c2ccc(C(C)(C)C)cc2)n1` was tested, and the Potency was inconclusive [decreasing]. In the case of `Fc1ccccc1CSc1ncnc2c1oc1ccccc12`, the Potency is reported as inconclusive [decreasing]. `CCOC(=O)CSc1cc(=O)n(C)c2cc(Cl)ccc12` was tested, and the Potency was inconclusive [decreasing]. In the case of `CC(C)=CC(=O)OCC(=O)Nc1nc(C)c(Cl)cc1Cl`, the Potency is reported as inconclusive [increasing]. In the case of `COCc1[nH]nc2c1C1(CCC3(CC1)OCCO3)C(C#N)=C(N)O2`, the Potency is reported as inactive: > 57 µM. With `COc1ccc2c(=O)c(-c3nc(C)cs3)coc2c1` the Potency was active: 4.15 µM. `COc1ccc(S(=O)(=O)Nc2cccc(C)n2)c2ccccc12` was tested, and the Potency was inconclusive [increasing]. For `CCCn1cc(SCC(=O)NCc2ccco2)c2ccccc21`, the Potency was inactive: > 57 µM. For `CCOc1ncccc1C(=O)OCC(=O)c1cc(C)n(Cc2ccco2)c1C`, the Potency was inconclusive [decreasing]. In the case of `COc1ccc(C(=O)/C=C/Nc2cccc(C)n2)cc1OC`, the Potency is reported as active: 0.632 µM. For `CC1(C)CC(=O)C(C=Nc2ccc(Cl)cn2)=C(O)C1`, the Potency was inactive: > 25.6 µM. For `Cc1ccc(S(=O)(=O)CCc2nnc(NC(=O)c3ccccn3)s2)cc1`, the Potency was inconclusive [increasing].
